These results are taken from paper PMC7324525.

Protein sequences, listed by entry. Tags and fused reporters are not part of them. Lines headed by an entry give the natural chain unless they say otherwise; changes in a name come on top. Residues count along the entry.
UniProt Q9ULV1, residues 37-537: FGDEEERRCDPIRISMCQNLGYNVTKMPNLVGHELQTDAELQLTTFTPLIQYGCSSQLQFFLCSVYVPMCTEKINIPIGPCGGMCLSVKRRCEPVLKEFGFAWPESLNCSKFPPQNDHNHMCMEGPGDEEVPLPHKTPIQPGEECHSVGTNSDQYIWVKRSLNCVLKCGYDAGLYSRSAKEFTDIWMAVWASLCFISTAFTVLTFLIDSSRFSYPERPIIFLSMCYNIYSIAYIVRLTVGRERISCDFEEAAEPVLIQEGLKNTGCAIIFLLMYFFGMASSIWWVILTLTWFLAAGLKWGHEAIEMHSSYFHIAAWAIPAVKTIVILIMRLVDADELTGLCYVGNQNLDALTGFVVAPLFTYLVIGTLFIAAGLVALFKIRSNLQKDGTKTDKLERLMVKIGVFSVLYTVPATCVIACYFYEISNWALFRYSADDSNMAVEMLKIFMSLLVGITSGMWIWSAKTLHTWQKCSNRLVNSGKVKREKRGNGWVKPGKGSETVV
UniProt Q9EQD0, residues 27-585: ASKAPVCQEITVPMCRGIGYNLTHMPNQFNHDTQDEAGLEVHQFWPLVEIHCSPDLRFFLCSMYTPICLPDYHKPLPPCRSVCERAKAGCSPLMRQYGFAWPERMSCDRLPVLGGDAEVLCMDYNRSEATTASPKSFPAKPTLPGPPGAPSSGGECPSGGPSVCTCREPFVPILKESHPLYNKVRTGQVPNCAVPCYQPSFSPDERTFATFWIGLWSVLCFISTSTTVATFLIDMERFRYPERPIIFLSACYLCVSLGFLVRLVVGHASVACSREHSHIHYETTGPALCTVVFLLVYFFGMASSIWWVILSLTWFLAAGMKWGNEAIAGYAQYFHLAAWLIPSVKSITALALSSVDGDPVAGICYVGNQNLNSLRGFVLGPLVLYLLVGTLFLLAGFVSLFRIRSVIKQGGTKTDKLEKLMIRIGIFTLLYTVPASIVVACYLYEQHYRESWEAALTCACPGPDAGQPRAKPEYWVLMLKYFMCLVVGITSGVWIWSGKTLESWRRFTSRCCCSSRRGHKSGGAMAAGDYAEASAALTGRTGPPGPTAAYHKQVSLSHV
UniProt Q61091, residues 28-685: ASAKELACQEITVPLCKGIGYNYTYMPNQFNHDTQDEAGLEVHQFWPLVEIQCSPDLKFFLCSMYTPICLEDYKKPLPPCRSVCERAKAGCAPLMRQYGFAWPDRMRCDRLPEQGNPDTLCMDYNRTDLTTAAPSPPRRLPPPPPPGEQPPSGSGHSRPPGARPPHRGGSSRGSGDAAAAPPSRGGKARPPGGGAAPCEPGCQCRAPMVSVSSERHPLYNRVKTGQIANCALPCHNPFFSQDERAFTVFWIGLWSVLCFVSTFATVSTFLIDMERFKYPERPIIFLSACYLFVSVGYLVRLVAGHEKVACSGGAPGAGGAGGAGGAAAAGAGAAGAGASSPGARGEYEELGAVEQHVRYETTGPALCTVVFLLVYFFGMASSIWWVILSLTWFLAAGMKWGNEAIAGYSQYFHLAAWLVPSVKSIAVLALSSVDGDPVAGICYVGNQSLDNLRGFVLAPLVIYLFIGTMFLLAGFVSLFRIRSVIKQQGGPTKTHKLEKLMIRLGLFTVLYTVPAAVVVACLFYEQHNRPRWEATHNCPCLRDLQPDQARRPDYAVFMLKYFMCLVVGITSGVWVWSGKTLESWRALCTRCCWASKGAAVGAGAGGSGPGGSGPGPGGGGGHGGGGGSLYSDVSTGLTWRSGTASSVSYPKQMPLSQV
UniProt P56726, residues 33-793: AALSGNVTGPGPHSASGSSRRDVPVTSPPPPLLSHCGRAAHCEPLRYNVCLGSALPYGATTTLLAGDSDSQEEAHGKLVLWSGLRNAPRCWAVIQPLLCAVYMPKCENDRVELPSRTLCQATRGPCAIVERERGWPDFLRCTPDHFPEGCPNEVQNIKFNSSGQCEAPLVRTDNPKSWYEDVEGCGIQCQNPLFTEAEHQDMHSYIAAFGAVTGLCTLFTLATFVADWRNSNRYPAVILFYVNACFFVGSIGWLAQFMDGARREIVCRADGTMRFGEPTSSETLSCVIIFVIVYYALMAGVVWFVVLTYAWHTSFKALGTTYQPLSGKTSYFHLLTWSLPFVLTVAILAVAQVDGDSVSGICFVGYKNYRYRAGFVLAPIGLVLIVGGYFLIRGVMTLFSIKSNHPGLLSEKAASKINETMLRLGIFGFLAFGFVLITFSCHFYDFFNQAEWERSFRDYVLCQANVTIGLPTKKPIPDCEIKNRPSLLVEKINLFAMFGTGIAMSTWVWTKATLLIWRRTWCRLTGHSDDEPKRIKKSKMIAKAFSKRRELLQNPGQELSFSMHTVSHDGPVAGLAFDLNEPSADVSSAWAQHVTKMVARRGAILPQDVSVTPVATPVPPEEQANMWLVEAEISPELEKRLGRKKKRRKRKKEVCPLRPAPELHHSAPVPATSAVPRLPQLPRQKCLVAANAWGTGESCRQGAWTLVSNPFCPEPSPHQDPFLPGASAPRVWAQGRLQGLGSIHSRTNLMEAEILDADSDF
UniProt P27467, residues 19-352: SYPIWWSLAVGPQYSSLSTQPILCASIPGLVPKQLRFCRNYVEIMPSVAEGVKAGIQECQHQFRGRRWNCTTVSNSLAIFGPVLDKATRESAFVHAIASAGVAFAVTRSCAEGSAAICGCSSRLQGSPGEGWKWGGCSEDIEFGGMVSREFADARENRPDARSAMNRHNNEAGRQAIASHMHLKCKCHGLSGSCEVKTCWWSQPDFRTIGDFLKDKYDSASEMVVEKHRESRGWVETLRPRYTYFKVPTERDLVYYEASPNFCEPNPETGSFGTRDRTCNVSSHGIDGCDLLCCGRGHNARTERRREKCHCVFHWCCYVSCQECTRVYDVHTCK

The target in one assay is Nluc-FZD4 (human) (UniProt Q9ULV1). The assay can be described thus: FRET or BRET; NanoBRET association kinetics; L-cell-derived eGFP-Wnt-3a conditioned medium (serum-containing) added to living ΔFZD1–10 HEK293 cells expressing Nluc-FZD4; 37 °C, 180 min. For orientation: Bioluminescence resonance energy transfer reports proximity on the nanometre scale.
For assay [1], the target named is T1, mouse FZD4-mCherry (transient, ΔFZD1–10 GFP-free HEK293 cells) (mouse) (UniProt Q61088).
T1 sequence: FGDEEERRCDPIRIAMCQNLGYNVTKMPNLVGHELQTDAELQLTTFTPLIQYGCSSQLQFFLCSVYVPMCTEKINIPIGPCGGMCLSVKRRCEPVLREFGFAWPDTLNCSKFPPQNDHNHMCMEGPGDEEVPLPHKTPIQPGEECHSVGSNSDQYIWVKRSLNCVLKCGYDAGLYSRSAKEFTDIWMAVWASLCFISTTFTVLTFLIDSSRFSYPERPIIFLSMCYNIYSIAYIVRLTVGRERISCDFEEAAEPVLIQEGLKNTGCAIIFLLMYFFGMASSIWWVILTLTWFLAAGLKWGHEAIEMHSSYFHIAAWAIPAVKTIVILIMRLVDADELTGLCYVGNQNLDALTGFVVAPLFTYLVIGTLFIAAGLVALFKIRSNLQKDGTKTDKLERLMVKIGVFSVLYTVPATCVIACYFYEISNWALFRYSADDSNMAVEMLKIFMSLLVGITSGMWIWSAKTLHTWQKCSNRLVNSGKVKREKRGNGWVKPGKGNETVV
The assay can be described thus: confocal laser scanning microscopy of fluorescent ligand on live cells; living ΔFZD1–10 GFP-free HEK293 cells transiently transfected with mouse FZD-mCherry, incubated 1 h with eGFP-Wnt-3a L-cell conditioned medium; relative binding approximated by visual inspection.

Assay [2] addresses mouse FZD5-mCherry (transient, ΔFZD1–10 GFP-free HEK293 cells) (mouse) (UniProt Q9EQD0). The assay is described as above.
Assay [3] addresses mouse FZD8-mCherry (transient, ΔFZD1–10 GFP-free HEK293 cells) (mouse) (UniProt Q61091). The assay is described as above.
For assay [4], the target named is T2, mouse FZD9-mCherry (transient, ΔFZD1–10 GFP-free HEK293 cells) (mouse) (UniProt Q9R216).
T2 sequence: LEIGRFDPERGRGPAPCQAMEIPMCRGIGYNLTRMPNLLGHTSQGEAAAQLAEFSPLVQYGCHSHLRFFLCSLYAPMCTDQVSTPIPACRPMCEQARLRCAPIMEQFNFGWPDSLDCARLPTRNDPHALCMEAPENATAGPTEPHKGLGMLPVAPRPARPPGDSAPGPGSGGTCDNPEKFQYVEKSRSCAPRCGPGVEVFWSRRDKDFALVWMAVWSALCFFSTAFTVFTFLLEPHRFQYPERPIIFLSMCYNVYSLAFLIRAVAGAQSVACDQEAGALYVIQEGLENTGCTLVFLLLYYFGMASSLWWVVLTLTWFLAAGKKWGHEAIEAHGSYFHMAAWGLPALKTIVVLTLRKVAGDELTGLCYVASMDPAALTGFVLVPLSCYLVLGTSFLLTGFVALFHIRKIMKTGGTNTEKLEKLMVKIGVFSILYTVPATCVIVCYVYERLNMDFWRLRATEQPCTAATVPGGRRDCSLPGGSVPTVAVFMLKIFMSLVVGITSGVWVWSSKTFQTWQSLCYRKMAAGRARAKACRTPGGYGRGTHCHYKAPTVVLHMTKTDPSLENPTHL
The assay is described as above.

Assay [5] concerns the target T3, mouse FZD4-mCherry (stable NCI-H1703 cell line) (mouse) (UniProt Q61088).
T3 sequence: T1 sequence
The assay can be described thus: confocal laser scanning microscopy of fluorescent ligand on live cells; living NCI-H1703 cells with stable mouse FZD-mCherry, incubated 3 h with eGFP-Wnt-3a L-cell conditioned medium; membrane eGFP against mCherry fluorescence, relative binding approximated by visual inspection.

The target in assay [6] is mouse FZD8-mCherry (stable NCI-H1703 cell line) (mouse) (UniProt Q61091). The description is as above.
Assay [7] deals with T4, mouse FZD9-mCherry (stable NCI-H1703 cell line) (mouse) (UniProt Q9R216).
T4 sequence: T2 sequence
The description is as above.

The target of the next assay is T5, Nluc-FZD6 (UniProt O60353).
T5 sequence: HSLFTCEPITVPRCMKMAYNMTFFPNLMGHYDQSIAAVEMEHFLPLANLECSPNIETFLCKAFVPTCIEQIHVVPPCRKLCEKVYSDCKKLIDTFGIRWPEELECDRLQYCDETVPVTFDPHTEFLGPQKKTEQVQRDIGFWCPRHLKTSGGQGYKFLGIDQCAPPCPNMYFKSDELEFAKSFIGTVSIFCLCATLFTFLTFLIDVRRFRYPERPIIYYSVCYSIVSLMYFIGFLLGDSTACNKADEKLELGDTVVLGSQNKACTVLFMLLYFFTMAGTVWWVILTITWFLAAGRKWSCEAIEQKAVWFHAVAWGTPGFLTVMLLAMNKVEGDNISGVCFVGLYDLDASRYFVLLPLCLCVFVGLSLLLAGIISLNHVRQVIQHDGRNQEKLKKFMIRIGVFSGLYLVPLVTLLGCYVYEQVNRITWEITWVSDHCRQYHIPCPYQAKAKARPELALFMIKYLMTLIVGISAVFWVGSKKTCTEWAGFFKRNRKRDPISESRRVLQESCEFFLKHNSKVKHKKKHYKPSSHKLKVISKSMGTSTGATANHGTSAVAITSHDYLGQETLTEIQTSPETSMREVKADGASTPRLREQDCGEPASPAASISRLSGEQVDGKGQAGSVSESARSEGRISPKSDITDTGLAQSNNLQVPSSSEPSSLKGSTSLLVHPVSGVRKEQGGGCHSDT
In words: FRET or BRET; NanoBRET; eGFP-Wnt-3a conditioned medium against control medium on living ΔFZD1–10 HEK293 cells expressing Nluc-FZD6 or Nluc-SMO (Fig. S4c); preparation of the medium not stated.

Assay [8] deals with Nluc-SMO (coding for mouse Smoothened) (mouse) (UniProt P56726). The description is as above.

Results are given in words; binding and its absence hold for the method and conditions named. For some of these results: Binding seen in cells or lysates may run through a third protein. Some binding calls cover weakened binding; strength is not graded here. For some of these results: Where a sequence is shown, tags or fusion partners need not be part of it.

In the case of “eGFP-Wnt-3a (conditioned medium from the stable L-cell line) (from UniProt P27467 19-352) (ligand)”, the binding result is “binds” with Nluc-FZD4 (human); “binds” in assay [1]; “binds” in [2]; “binds” in [3]; “binds weakly” in [4]; “binds” in assay [5]. Moreover, the binding entry in assay [6] was “binds”; in assay [7], “binds weakly”.

Regarding “eGFP-Wnt-3a (conditioned medium, preparation not stated) (from UniProt P27467 19-352) (ligand)”, the binding result (with Nluc-FZD6; in [8]) was “no binding” throughout.
